The other results are listed elsewhere or left out.
Columns and labels:
Assay in all cases: glycan array binding signal (z-score within array); higher = stronger binding
Conditions in all cases: glycan notation: IUPAC condensed, linker removed
[1] = biological target: Gal(b1-4)GlcNAc(b1-2)[Gal(b1-4)GlcNAc(b1-6)]Man(a1-6)[GlcNAc(b1-4)][Gal(b1-4)GlcNAc(b1-2)Man(a1-3)]Man(b1-4)GlcNAc(b1-4)GlcNAc
Summary of the method: (§1)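 The Consortium for Functional Glycomics database supplied 3228 glycan arrays, of which those lacking an available protein sequence were dropped. The binding signal, a within-array Z-score, was averaged across arrays of the same protein sequence and across linkers. Negative scores can be read as non-binding.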

[2] = biological target: Gal(b1-4)GlcNAc(b1-2)[Gal(b1-4)GlcNAc(b1-6)]Man(a1-6)[GlcNAc(b1-4)][Gal(b1-4)GlcNAc(b1-2)[Gal(b1-4)GlcNAc(b1-4)]Man(a1-3)]Man(b1-4)GlcNAc(b1-4)[Fuc(a1-6)]GlcNAc
Summary of the method: as §1

[3] = biological target: Gal(b1-4)GlcNAc(b1-3)Gal(b1-3)GalNAc
Summary of the method: as §1

[4] = biological target: Gal(b1-4)GlcNAc(b1-3)Gal(b1-3)GlcNAc
Summary of the method: as §1

[5] = biological target: Gal(b1-4)GlcNAc(b1-3)Gal(b1-4)Glc
Summary of the method: as §1

[6] = biological target: Gal(b1-4)GlcNAc(b1-3)Gal(b1-4)GlcNAc
Summary of the method: as §1

[7] = biological target: Gal(b1-4)GlcNAc(b1-3)Gal(b1-4)GlcNAc(b1-2)Man(a1-3)[Gal(b1-4)GlcNAc(b1-3)Gal(b1-4)GlcNAc(b1-2)Man(a1-6)]Man(b1-4)GlcNAc(b1-4)GlcNAc
Summary of the method: as §1

[8] = biological target: Gal(b1-4)GlcNAc(b1-3)Gal(b1-4)GlcNAc(b1-2)Man(a1-3)[Gal(b1-4)GlcNAc(b1-3)Gal(b1-4)GlcNAc(b1-2)Man(a1-6)]Man(b1-4)GlcNAc(b1-4)[Fuc(a1-6)]GlcNAc
Summary of the method: as §1

[9] = biological target: Gal(b1-4)GlcNAc(b1-3)Gal(b1-4)GlcNAc(b1-2)[Gal(b1-4)GlcNAc(b1-3)Gal(b1-4)GlcNAc(b1-6)]Man(a1-6)[Gal(b1-4)GlcNAc(b1-3)Gal(b1-4)GlcNAc(b1-2)Man(a1-3)]Man(b1-4)GlcNAc(b1-4)GlcNAc
Summary of the method: as §1

[10] = biological target: Gal(b1-4)GlcNAc(b1-3)Gal(b1-4)GlcNAc(b1-2)[Gal(b1-4)GlcNAc(b1-3)Gal(b1-4)GlcNAc(b1-6)]Man(a1-6)[Gal(b1-4)GlcNAc(b1-3)Gal(b1-4)GlcNAc(b1-2)Man(a1-3)]Man(b1-4)GlcNAc(b1-4)[Fuc(a1-6)]GlcNAc
Summary of the method: as §1

[11] = biological target: Gal(b1-4)GlcNAc(b1-3)Gal(b1-4)GlcNAc(b1-3)Gal(b1-4)GlcNAc
Summary of the method: as §1

[12] = biological target: Gal(b1-4)GlcNAc(b1-3)Gal(b1-4)GlcNAc(b1-3)Gal(b1-4)GlcNAc(b1-2)Man(a1-3)[Gal(b1-4)GlcNAc(b1-3)Gal(b1-4)GlcNAc(b1-3)Gal(b1-4)GlcNAc(b1-2)Man(a1-6)]Man(b1-4)GlcNAc(b1-4)GlcNAc
Summary of the method: as §1

[13] = biological target: Gal(b1-4)GlcNAc(b1-3)Gal(b1-4)GlcNAc(b1-3)Gal(b1-4)GlcNAc(b1-2)Man(a1-3)[Gal(b1-4)GlcNAc(b1-3)Gal(b1-4)GlcNAc(b1-3)Gal(b1-4)GlcNAc(b1-2)Man(a1-6)]Man(b1-4)GlcNAc(b1-4)[Fuc(a1-6)]GlcNAc
Summary of the method: as §1

[14] = biological target: Gal(b1-4)GlcNAc(b1-3)Gal(b1-4)GlcNAc(b1-3)Gal(b1-4)GlcNAc(b1-2)[Gal(b1-4)GlcNAc(b1-3)Gal(b1-4)GlcNAc(b1-3)Gal(b1-4)GlcNAc(b1-6)]Man(a1-6)[Gal(b1-4)GlcNAc(b1-3)Gal(b1-4)GlcNAc(b1-3)Gal(b1-4)GlcNAc(b1-2)Man(a1-3)]Man(b1-4)GlcNAc(b1-4)[Fuc(a1-6)]GlcNAc
Summary of the method: as §1

[15] = biological target: Gal(b1-4)GlcNAc(b1-3)Gal(b1-4)GlcNAc(b1-3)Gal(b1-4)GlcNAc(b1-3)Gal(b1-4)GlcNAc(b1-2)Man(a1-3)[Gal(b1-4)GlcNAc(b1-3)Gal(b1-4)GlcNAc(b1-3)Gal(b1-4)GlcNAc(b1-3)Gal(b1-4)GlcNAc(b1-2)Man(a1-6)]Man(b1-4)GlcNAc(b1-4)GlcNAc
Summary of the method: as §1

[16] = biological target: Gal(b1-4)GlcNAc(b1-3)Gal(b1-4)GlcNAc(b1-3)Gal(b1-4)GlcNAc(b1-3)Gal(b1-4)GlcNAc(b1-2)Man(a1-3)[Gal(b1-4)GlcNAc(b1-3)Gal(b1-4)GlcNAc(b1-3)Gal(b1-4)GlcNAc(b1-3)Gal(b1-4)GlcNAc(b1-2)Man(a1-6)]Man(b1-4)GlcNAc(b1-4)[Fuc(a1-6)]GlcNAc
Summary of the method: as §1

[17] = biological target: Gal(b1-4)GlcNAc(b1-3)Gal(b1-4)GlcNAc(b1-3)Gal(b1-4)GlcNAc(b1-3)Gal(b1-4)GlcNAc(b1-2)[Gal(b1-4)GlcNAc(b1-3)Gal(b1-4)GlcNAc(b1-3)Gal(b1-4)GlcNAc(b1-3)Gal(b1-4)GlcNAc(b1-6)]Man(a1-6)[Gal(b1-4)GlcNAc(b1-3)Gal(b1-4)GlcNAc(b1-3)Gal(b1-4)GlcNAc(b1-3)Gal(b1-4)GlcNAc(b1-2)Man(a1-3)]Man(b1-4)GlcNAc(b1-4)[Fuc(a1-6)]GlcNAc
Summary of the method: as §1

[18] = biological target: Gal(b1-4)GlcNAc(b1-3)Gal(b1-4)GlcNAc(b1-3)Gal(b1-4)GlcNAc(b1-3)Gal(b1-4)GlcNAc(b1-3)Gal(b1-4)GlcNAc(b1-2)Man(a1-3)[Gal(b1-4)GlcNAc(b1-3)Gal(b1-4)GlcNAc(b1-3)Gal(b1-4)GlcNAc(b1-3)Gal(b1-4)GlcNAc(b1-3)Gal(b1-4)GlcNAc(b1-2)Man(a1-6)]Man(b1-4)GlcNAc(b1-4)GlcNAc
Summary of the method: as §1

[19] = biological target: Gal(b1-4)GlcNAc(b1-3)Gal(b1-4)GlcNAc(b1-3)Gal(b1-4)GlcNAc(b1-3)Gal(b1-4)GlcNAc(b1-3)Gal(b1-4)GlcNAc(b1-2)Man(a1-3)[Gal(b1-4)GlcNAc(b1-3)Gal(b1-4)GlcNAc(b1-3)Gal(b1-4)GlcNAc(b1-3)Gal(b1-4)GlcNAc(b1-3)Gal(b1-4)GlcNAc(b1-2)Man(a1-6)]Man(b1-4)GlcNAc(b1-4)[Fuc(a1-6)]GlcNAc
Summary of the method: as §1

[20] = biological target: Gal(b1-4)GlcNAc(b1-3)Gal(b1-4)GlcNAc(b1-3)Gal(b1-4)GlcNAc(b1-3)Gal(b1-4)GlcNAc(b1-3)Gal(b1-4)GlcNAc(b1-2)[Gal(b1-4)GlcNAc(b1-3)Gal(b1-4)GlcNAc(b1-3)Gal(b1-4)GlcNAc(b1-3)Gal(b1-4)GlcNAc(b1-3)Gal(b1-4)GlcNAc(b1-6)]Man(a1-6)[Gal(b1-4)GlcNAc(b1-3)Gal(b1-4)GlcNAc(b1-3)Gal(b1-4)GlcNAc(b1-3)Gal(b1-4)GlcNAc(b1-3)Gal(b1-4)GlcNAc(b1-2)Man(a1-3)]Man(b1-4)GlcNAc(b1-4)[Fuc(a1-6)]GlcNAc
Summary of the method: as §1

[21] = biological target: Gal(b1-4)GlcNAc(b1-3)Gal(b1-4)GlcNAc(b1-3)Gal(b1-4)GlcNAc(b1-3)Gal(b1-4)GlcNAc(b1-3)Gal(b1-4)GlcNAc(b1-3)Gal(b1-4)GlcNAc(b1-2)Man(a1-3)[Gal(b1-4)GlcNAc(b1-3)Gal(b1-4)GlcNAc(b1-3)Gal(b1-4)GlcNAc(b1-3)Gal(b1-4)GlcNAc(b1-3)Gal(b1-4)GlcNAc(b1-3)Gal(b1-4)GlcNAc(b1-2)Man(a1-6)]Man(b1-4)GlcNAc(b1-4)GlcNAc
Summary of the method: as §1

[22] = biological target: Gal(b1-4)GlcNAc(b1-3)Gal(b1-4)GlcNAc(b1-3)GalNAc
Summary of the method: as §1

[23] = biological target: Gal(b1-4)GlcNAc(b1-3)Gal(b1-4)GlcNAc(b1-3)[Gal(b1-4)GlcNAc(b1-3)Gal(b1-4)GlcNAc(b1-6)]GalNAc
Summary of the method: as §1

[24] = biological target: Gal(b1-4)GlcNAc(b1-3)Gal(b1-4)GlcNAc(b1-6)[Gal(b1-3)]GalNAc
Summary of the method: as §1

[25] = biological target: Gal(b1-4)GlcNAc(b1-3)Gal(b1-4)[Fuc(a1-3)]GlcNAc(b1-3)Gal(b1-4)[Fuc(a1-3)]GlcNAc
Summary of the method: as §1

[26] = biological target: Gal(b1-4)GlcNAc(b1-3)GalNAc
Summary of the method: as §1

[27] = biological target: Gal(b1-4)GlcNAc(b1-3)[Fuc(a1-3)GlcNAc(b1-6)]Gal(b1-4)Glc
Summary of the method: as §1

[28] = biological target: Gal(b1-4)GlcNAc(b1-3)[Gal(b1-4)GlcNAc(b1-6)]Gal(b1-4)GlcNAc
Summary of the method: as §1

[29] = biological target: Gal(b1-4)GlcNAc(b1-3)[GlcNAc(b1-6)]Gal(b1-4)GlcNAc
Summary of the method: as §1

[30] = biological target: Gal(b1-4)GlcNAc(b1-6)Gal(b1-4)GlcNAc
Summary of the method: as §1

[31] = biological target: Gal(b1-4)GlcNAc(b1-6)GalNAc
Summary of the method: as §1

[32] = biological target: Gal(b1-4)GlcNAc(b1-6)[Gal(b1-3)]GalNAc
Summary of the method: as §1

[33] = biological target: Gal(b1-4)GlcNAc(b1-6)[Gal(b1-4)GlcNAc(b1-3)]GalNAc
Summary of the method: as §1

Gal(b1-4)GlcNAc6P = biological target: Gal(b1-4)GlcNAc6P
Summary of the method: as §1

Gal(b1-6)Gal = biological target: Gal(b1-6)Gal
Summary of the method: as §1

Gal3S(b1-3)GalNAc = biological target: Gal3S(b1-3)GalNAc
Summary of the method: as §1

Gal3S(b1-3)GlcNAc = biological target: Gal3S(b1-3)GlcNAc
Summary of the method: as §1

[34] = biological target: Gal3S(b1-3)[Fuc(a1-4)]GlcNAc
Summary of the method: as §1

B1: PX15618B-bfa-464-25-464 (Bacteroides fragilis) (protein)
chain: DQEPPLYVNENDIFTSPTRIEATLNGLYAAIKNTGTKSLMGGKSYLVFDNRGDDVINISNNLVTLFNTYNMNVGITDAENADTWTYAYLAINKVNTFLQSLEGAREVAGENYDRYVQEAKFVRALAYYYLNNLYPTPYSVNPDAKSVPLRLTAEAGTENNNMPRSTVKQIYEHILSDLENISALDTEVNTYTGVTHATQAAANMLKMRVYMAMNEWDKAITAGELVTGYSLPEDVTLIYKAPYFSQESIFSLPMADTNIPNTQQSLAEYYYDGKIMLIDTKSGIMSKPDYSLATDKRIIAFKGEKDLLMKFTDAKTKLQWVPIFRYAETLLDLAECYANKAGGEATAKSLLKQVRGRSVDAATDPLNIDNLSGDALKEAIYNEKRLEFIGEGIRGIDIMRRGEHFIKVGENETINVGPSDEKYTWPIPQVELLLNKDINK
[1]
  glycan array binding signal (z-score): -0.159
[2]
  glycan array binding signal (z-score): -0.06
[3]
  glycan array binding signal (z-score): -0.13
[4]
  glycan array binding signal (z-score): -0.62
[5]
  glycan array binding signal (z-score): -0.611
[6]
  glycan array binding signal (z-score): 0.342
[7]
  glycan array binding signal (z-score): 0.341
[8]
  glycan array binding signal (z-score): -0.332
[9]
  glycan array binding signal (z-score): 0.039
[10]
  glycan array binding signal (z-score): 1.2
[11]
  glycan array binding signal (z-score): -0.187
[12]
  glycan array binding signal (z-score): 0.659
[13]
  glycan array binding signal (z-score): -0.112
[14]
  glycan array binding signal (z-score): 0.138
[15]
  glycan array binding signal (z-score): 0.837
[16]
  glycan array binding signal (z-score): 0.871
[17]
  glycan array binding signal (z-score): 0.086
[18]
  glycan array binding signal (z-score): 0.222
[19]
  glycan array binding signal (z-score): 0.468
[20]
  glycan array binding signal (z-score): 19.3
[21]
  glycan array binding signal (z-score): 0.717
[22]
  glycan array binding signal (z-score): -0.382
[23]
  glycan array binding signal (z-score): 0.24
[24]
  glycan array binding signal (z-score): 0.36
[25]
  glycan array binding signal (z-score): 0.289
[26]
  glycan array binding signal (z-score): -0.204
[27]
  glycan array binding signal (z-score): 0.311
[28]
  glycan array binding signal (z-score): -0.16
[29]
  glycan array binding signal (z-score): -0.037
[30]
  glycan array binding signal (z-score): 0.086
[31]
  glycan array binding signal (z-score): 0.074
[32]
  glycan array binding signal (z-score): -0.268
[33]
  glycan array binding signal (z-score): 0.491
Gal(b1-4)GlcNAc6P
  glycan array binding signal (z-score): -0.626
Gal(b1-6)Gal
  glycan array binding signal (z-score): -0.172
Gal3S(b1-3)GalNAc
  glycan array binding signal (z-score): -0.122
Gal3S(b1-3)GlcNAc
  glycan array binding signal (z-score): -0.126
[34]
  glycan array binding signal (z-score): -0.397

Source: the supplement of paper PMC8728848
